Experimental data from patent publication US20220249679A1 (Mitsubishi Tanabe Pharma Corporation, priority 2018, published 2022).

Key:
mouse FGFR3c = mouse FGFR3c (Mus musculus, UniProt Q61851); assay: mFGFR3c ELISA of bi-specific binding agents; details: NB = No binding
From the text: Similarly, for expression of hF6 comprising G7 fused to the C-terminus of the heavy chain, a nucleic acid construct was generated comprising a coding region directing the expression of the hF6 heavy chain located 5′ of, and in-frame with, a sequence encoding the linker and a coding region directing the expression of G7. For expression of hF6 comprising G7 fused to the N-terminus of the light chain, a nucleic acid construct was generated comprising a coding region directing the expression of G7 located 5′ of, and in-frame with, a sequence encoding the linker and a coding region directing the expression of the hF6 light chain. For expression of hF6 comprising G7 fused to the C-terminus of the light chain, a nucleic acid construct was generated comprising a coding region directing the expression of the hF6 light chain located 5′ of, and in-frame with, a sequence encoding the linker and a coding region directing the expression of G7. The indicated constructs were then co-transfected into CHO cells with a nucleic acid construct directing the expression of the corresponding heavy or light chain of hF6.

[1] = molecular target: T1, human FGFR3c on transfected CHO cells (Homo sapiens, UniProt P22607); assay: FACS binding to CHO cells expressing human FGFR3c; details: FACs analysis, FIG. 16A
T1 construct: expressed in transfected cells; host or cells: CHO
T1 sequence (P22607 23-806): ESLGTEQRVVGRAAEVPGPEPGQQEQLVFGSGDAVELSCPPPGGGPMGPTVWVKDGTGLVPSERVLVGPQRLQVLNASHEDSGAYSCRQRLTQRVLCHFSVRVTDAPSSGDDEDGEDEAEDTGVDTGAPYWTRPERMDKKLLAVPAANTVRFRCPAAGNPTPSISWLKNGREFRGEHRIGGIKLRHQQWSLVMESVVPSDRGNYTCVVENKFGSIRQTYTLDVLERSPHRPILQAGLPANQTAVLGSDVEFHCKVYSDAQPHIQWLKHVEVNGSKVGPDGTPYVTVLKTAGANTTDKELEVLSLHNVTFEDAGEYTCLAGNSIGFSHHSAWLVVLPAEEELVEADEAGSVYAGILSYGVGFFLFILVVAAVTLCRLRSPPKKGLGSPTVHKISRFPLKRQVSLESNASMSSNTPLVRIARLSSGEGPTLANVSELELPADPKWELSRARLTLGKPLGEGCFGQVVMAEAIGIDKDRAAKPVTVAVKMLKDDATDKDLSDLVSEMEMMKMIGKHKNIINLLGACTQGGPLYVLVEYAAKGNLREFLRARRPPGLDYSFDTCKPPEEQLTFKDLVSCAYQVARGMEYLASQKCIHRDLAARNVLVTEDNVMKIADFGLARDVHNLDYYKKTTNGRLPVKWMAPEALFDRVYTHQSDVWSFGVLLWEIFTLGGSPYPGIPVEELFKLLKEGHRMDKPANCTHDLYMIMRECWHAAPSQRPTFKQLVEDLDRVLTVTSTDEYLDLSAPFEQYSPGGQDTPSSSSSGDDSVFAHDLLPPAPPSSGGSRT
From the text: (§1) CHO cells (Chinese Hamster Ovary cells) were transfected to express the human FGFR3c (FIG. 16A) or human FGFR3b (FIG. 16B) on the cell surface.

[2] = molecular target: T2, human FGFR3b on transfected CHO cells (Homo sapiens, UniProt P22607); assay: FACS binding to CHO cells expressing human FGFR3b; details: FACs analysis, FIG. 16B
T2 construct: expressed in transfected cells; host or cells: CHO
T2 sequence (P22607 23-808 isoform P22607-2 limits assumed): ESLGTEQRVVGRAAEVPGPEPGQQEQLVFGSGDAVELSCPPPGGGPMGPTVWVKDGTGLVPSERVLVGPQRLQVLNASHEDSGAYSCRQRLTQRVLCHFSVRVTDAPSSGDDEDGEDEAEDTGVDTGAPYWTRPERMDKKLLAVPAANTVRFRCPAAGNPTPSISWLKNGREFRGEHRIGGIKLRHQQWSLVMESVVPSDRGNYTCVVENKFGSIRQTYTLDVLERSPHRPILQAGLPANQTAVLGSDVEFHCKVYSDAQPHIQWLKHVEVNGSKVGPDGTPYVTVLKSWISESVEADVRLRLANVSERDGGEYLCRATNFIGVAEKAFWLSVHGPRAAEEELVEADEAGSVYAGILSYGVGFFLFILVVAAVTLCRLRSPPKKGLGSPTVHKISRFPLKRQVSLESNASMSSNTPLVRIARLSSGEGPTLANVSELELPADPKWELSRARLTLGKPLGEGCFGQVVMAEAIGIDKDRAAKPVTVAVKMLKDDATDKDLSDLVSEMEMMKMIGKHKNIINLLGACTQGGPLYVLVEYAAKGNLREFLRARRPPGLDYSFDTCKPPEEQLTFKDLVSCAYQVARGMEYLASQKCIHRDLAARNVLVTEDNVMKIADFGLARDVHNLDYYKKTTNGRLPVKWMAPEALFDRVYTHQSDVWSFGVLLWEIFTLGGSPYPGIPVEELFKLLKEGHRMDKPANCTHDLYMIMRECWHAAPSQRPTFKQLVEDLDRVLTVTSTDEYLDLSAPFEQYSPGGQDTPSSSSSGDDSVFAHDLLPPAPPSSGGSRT
From the text: as §1

human CD138 = molecular target: T3, human CD138 (Homo sapiens, UniProt P18827); assay: FACS binding to Expi293 cells transfected with human CD138; details: 3-fold dilutions from 33.3 μg/mL
T3 sequence (P18827 23-310): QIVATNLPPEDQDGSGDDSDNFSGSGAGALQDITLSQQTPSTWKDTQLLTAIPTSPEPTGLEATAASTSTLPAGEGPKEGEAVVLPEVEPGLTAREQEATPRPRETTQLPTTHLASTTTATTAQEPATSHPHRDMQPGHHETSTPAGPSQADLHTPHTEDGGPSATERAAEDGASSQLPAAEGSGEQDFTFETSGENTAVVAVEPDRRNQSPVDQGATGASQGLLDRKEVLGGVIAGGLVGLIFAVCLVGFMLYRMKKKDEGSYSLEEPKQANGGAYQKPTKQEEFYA
Method: (§2) 12P16F6 hIgG1 or 13P30A7 hIgG1 were tested for cross-reactivity to cynomolgus monkey CD138. Antibodies that cross-react with CD138 from cynomolgus monkey (cyno) have an advantage that they can be tested for toxicity in this strain of non-human primate prior to conducting efficacy trials. Briefly, a vector directing the cell-surface expression of human CD138 or cyno CD138 was transfected in Expi293 cells. Binding of 12P16F6 hIgG1 and 13P30A7 hIgG1 to transfected Expi293 cells was tested at 3-fold dilutions starting at 33.3 μg/mL.

cyno CD138 = assay: FACS binding to Expi293 cells transfected with cyno CD138; design: species or system cynomolgus monkey; details: 3-fold dilutions from 33.3 μg/mL
Method: as §2

CD138 on H929 cells = molecular target: T4, CD138 on H929 cells (Homo sapiens, UniProt P18827); assay: Primary hybridoma FACS screen on CD138 positive cells (H929); type: binding
T4 construct: H929 cells are a human B-lymphocyte cell line that expresses CD138 on its cell surface; endogenous in cells; host or cells: H929
T4 sequence (P18827 23-310): T3 sequence (P18827 23-310)
Method: Hybridoma supernatants from Fusion 12 (plates 12-19) were screened by Fluorescence-activated cell sorting (FACS) using 96-well plates containing 20,000 H929 cells per well. H929 cells are a human B-lymphocyte cell line that expresses CD138 on its cell surface. Hybridoma supernatants were added to H929 cells for 1 hour at 4° C. The cells were washed followed by addition of an AlexaFluro 647 anti-mouse antibody and washed again to remove unbound antibody. The cells were analyzed by FACS to detect binding. FACS Data was analyzed by Flowjo software. If supernatant antibodies bound cells at a level ≥3 standard deviations above the average signal of the plate, they were selected for confirmation FACS and further characterization. A total of 5013 hybridomas from Fusion 12 underwent this primary FACS screen with 134 positive hits; a total hit rate of 2.7% in primary screening.

[3] = molecular target: T5, H929 (CD138 expressing) cells (Homo sapiens, UniProt P18827); assay: Secondary FACS screen of Fusion 12 hybridomas, H929 cells; type: binding
T5 construct: H929 cells are a human B-lymphocyte cell line that expresses CD138 on its cell surface; endogenous in cells; host or cells: H929
T5 sequence (P18827 23-310): T3 sequence (P18827 23-310)
Method: (§3) For secondary screening, hybridoma supernatants were assayed by FACS for positive binding to H929 (CD138 expressing) and negative binding to ARH-77 (negative CD138 expression) cells. Negative cells were CSFE stained to help distinguish better positive and negative cell lines.

[4] = test system: ARH-77 (negative CD138 expression) cells; assay: Secondary FACS screen of Fusion 12 hybridomas, ARH-77 cells; type: binding
Method: as §3

Human CD138 His = molecular target: T6, Human CD138 His (Homo sapiens, UniProt P18827); assay: SPR kinetic binding, human CD138; details: bivalent analyte fit
T6 construct: His
T6 sequence (P18827 23-310): T3 sequence (P18827 23-310)
Method: Murine IgGs were purified from the hybridoma supernatants and the IgGs were subject to SPR (surface plasmon resonance) for kinetic binding measurements. Human or mouse CD138 His was immobilized on a GLM chip at […] on a BioRad Proteon. […] KDs were measured using bivalent analyte fit.

mouse CD138 peptide = mouse CD138 peptide (Mus musculus, UniProt P18828); assay: CD138 binding ELISA, mouse CD138 peptide; details: ELISA negative control peptide
Sequence of mouse CD138 peptide (P18828 147-167): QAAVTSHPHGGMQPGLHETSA
Method: A CD138 binding ELISA was performed with 9 representative humanized antibodies to determine binding to portion of the linear CD138 peptide used for immunization (FIG. 7). […] Coated plates were incubated with various dilutions of each of the 9 representative antibodies overnight and binding was detected with a goat anti-human IgG (H+L)-HRP. EC50s were determined using four parameter fit curves (Table 21). An ELISA was also performed to detect binding to plate-coated human CD138-Fc protein (Table 21). The analysis and results were similar.

Sequence of mouse FGFR3c (Q61851 21-801): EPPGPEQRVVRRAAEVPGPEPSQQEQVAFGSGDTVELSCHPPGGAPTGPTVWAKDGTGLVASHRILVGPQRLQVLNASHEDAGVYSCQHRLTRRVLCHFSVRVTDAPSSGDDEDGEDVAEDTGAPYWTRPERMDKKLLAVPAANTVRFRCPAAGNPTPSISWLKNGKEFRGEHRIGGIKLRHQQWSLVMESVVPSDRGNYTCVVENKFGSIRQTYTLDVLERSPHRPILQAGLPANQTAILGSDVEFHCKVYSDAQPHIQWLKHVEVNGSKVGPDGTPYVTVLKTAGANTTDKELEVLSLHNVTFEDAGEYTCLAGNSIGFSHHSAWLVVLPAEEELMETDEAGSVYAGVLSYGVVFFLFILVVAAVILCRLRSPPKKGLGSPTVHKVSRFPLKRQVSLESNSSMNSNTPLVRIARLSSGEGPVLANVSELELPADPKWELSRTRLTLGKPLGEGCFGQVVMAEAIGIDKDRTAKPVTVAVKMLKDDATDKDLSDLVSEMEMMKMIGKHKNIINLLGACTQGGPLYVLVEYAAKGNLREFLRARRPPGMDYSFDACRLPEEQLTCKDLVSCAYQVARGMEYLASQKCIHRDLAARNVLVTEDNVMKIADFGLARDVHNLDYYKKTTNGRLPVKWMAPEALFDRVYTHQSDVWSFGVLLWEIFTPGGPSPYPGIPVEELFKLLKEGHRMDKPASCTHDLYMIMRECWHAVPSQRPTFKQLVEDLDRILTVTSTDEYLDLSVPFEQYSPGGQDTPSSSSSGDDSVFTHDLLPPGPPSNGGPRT

B1: hF6-HN-G7: bi-specific: G7 Fynomer attached to the N-terminal end of the heavy chain of the hF6 antibody; SEQ ID NO:125 with light chain SEQ ID NO:44 (antibody)
heavy: MEWSWVFLFFLSVTTGVHSGVTLFVALYDYEVYGPTPMLSFHKGEKFQILKGGSGPYWEARSLTTGETGLIPSNYVAPVDSIQGGGGSGGGGSGGGGSQVQLVQSGAEVVKPGASVKLSCKASGYTFTSYYLYWVKKAPGQGLDWIGEIYPRSGGTNINEKFLSRVTLTADTSTSTAYLELSSLTSEDTAVYYCTRSLLYWGQGTTLTVSS[letters of human IgG1 constant region left out]
light: DVVMTQTPLSLSVTPGQPASISCKSSQSLLASDGKTYLNWLLQRPGQSPKRLIYLVSKLDSGVPNRFSGSGSGTDFTLQISRVEAEDVGLYYCWQGAHFPFTFGSGTKLEIKRTVAAPSVFIFPPSDEQLKSGTASVVCLLNNFYPREAKVQWKVDNALQSGNSQESVTEQDSKDSTYSLSSTLTLSKADYEKHKVYACEVTHQGLSSPVTKSFNRGEC
modifications: bi-specific binding agent hF6-HN-G7; (1)..(19) signaling sequence; (20)..(83) Fynomer portion; (84)..(98) linker; Humanized Light chain variable region
B1 was tested, and the EC50 (mouse FGFR3c) was 0.53 nM, the “binding to human FGFR3c on transfected CHO cells” value [1] was “specifically bind” and the “binding to human FGFR3b on transfected CHO cells” value [2] was “specifically bind”.

B2: hF6-HC-G7: bi-specific: G7 Fynomer attached to the C-terminal end of the heavy chain of the hF6 antibody (antibody)
heavy: QVQLVQSGAEVVKPGASVKLSCKASGYTFTSYYLYWVKKAPGQGLDWIGEIYPRSGGTNINEKFLSRVTLTADTSTSTAYLELSSLTSEDTAVYYCTRSLLYWGQGTTLTVSS[letters of human IgG1 constant region left out]GGGGSGGGGSGGGGSGVTLFVALYDYEVYGPTPMLSFHKGEKFQILKGGSGPYWEARSLTTGETGLIPSNYVAPVDSIQ
light: B1 light
Work on B2 yielded an EC50 (mouse FGFR3c) of 0.91 nM.

B3: 12P16F6 hIgG1: chimeric antibody: murine variable regions of F12P16F6 (SEQ ID NO:82, 34), constant regions of human IgG1, kappa (antibody, V domains shown)
VH: QVQLQQSGAEVVKPGASVKLSCKASGYTFTSYYLYWVKKGPGQGLDWIGEIYPRSGGTNINEKFLSKATLTADESSSTAYLQLSSLTSEDSAVYYCTRSLLYWGQGTTLIVSS
VL: DVVMTQTPLTLSVTIGQPASISCKSSQSLLASDGKTYLNWLLQRPGQSPKRLIYLVSKLDSGVPDRFTGSGSGTGFTLQISRVEAEDLGIYYCWQGAHFPFTFGSGTKLEIKR
In the case of B3, the “binding to human CD138 expressing cells” value (human CD138) is reported as “specific binding” and the “binding to cynomolgus CD138 expressing cells” value (cyno CD138) is reported as “specific binding”.

B4: F12P16F6: murine anti-CD138 hybridoma antibody; VH SEQ ID NO:82, VL SEQ ID NO:34 (antibody, listed as Mus musculus, V domains shown)
VH: B3 VH
VL: B3 VL
In the case of B4, the “% Q4” value (CD138 on H929 cells; Q4 = unbound cells) is reported as 0.223%, the “Cells | Geom. Mean (FL4-A)” value (CD138 on H929 cells; all cells) is reported as 6.94E+05 and the “Q1 Geom. Mean” value (CD138 on H929 cells; average fluorescence intensity of cells in Q1) is reported as 7.07E+05. The “Q4 Geom. Mean” value (CD138 on H929 cells; average fluorescence intensity of cells in Q4) was 146, the “% Q1” value (CD138 on H929 cells; hybridoma supernatant, H929 cells, Q1 = positive binding of antibody) was 99.6% and the “H929 GeoMean” value ([3]; average fluorescence intensity) was 6.46E+05. For the same molecule, the “H929 Q1%” value ([3]; percentage of H929 cells bound by antibody) was 99.32%, the “% ARH77 (−)” value ([4]; CD138-negative ARH77 cells) was 21.85% and the “ARH77 Geom. Mean” value ([4]; average fluorescence intensity) was 1.12E+04. The “hCD138 ka” value (Human CD138 His) was 55700 M⁻¹ s⁻¹, the “hCD138 kd” value (Human CD138 His) was 0.00117 s⁻¹ and the “binding to mouse CD138 peptide” value (mouse CD138 peptide) was “does not bind”.
